Results taken from the supplement of paper PMC10126150.
Values marked as one replicate rest on one cluster of the flow cell; about a third of the high ones do not repeat.

System: ATP
Experiment: switch fluorescence ratio, 500 uM ATP over buffer (Cy3 cluster intensity, sum of 5 cycles each) (fold (ratio)); higher = stronger signal-on switching upon ATP binding; sequences stand for … in TCGTCGGCAGCGTCAGATGTGTATAAGAGACAGTTTTTTTTTTTTTTTTTTTTTTTTT…TC
Details: aptamer strand: ATP DNA aptamer (quencher-CACCTGGGGGAGTATTGCGGAGGAAGG + anchor), 100 nM annealed; ATP concentration: 500 uM; one replicate
Method in brief: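 The fluorescence ratio divides summed target-cycle Cy3 intensity by summed buffer-cycle Cy3 intensity for each cluster and is averaged per switch-domain sequence. Cy3-labelled switching-strand clusters on a modified Illumina MiSeq flow-cell were annealed to 100 nM quencher-labelled ATP aptamer, then imaged in selection buffer and again after 15 min with 500 uM ATP at 22 °C. Five such cycles were run, with NaOH stripping and re-annealing between them, and clusters outside 100-1000 RFU were excluded.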
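Note: ATP exposure 15 min at 22 °C before imaging.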

Sequence | switch fluorescence ratio
CTGCTCGCGA | 4.21
TCCGGCCCAA | 5.24
TTTGACTATT | 0.982
TCGCTACAA | 1.02
ACAAATAAAA | 0.989
CAGTACCAAT | 1.08
CTCCAGCCTA | 1.42
CCTTCCAGTA | 2.66
TGGATGTGAA | 0.98
CCGTCGGAG | 1.03
CGTGTAGCAC | 1.13
GTTGAGATAA | 1.01
CAATATACCA | 1
CCTACAATT | 1.04
ACAGGTGGTA | 1.33
TGCAGATTGA | 1.05
AAGAAACGTG | 0.992
GGGATGTTGT | 0.991
TACTGCTGGG | 1.01
CATCGCGCG | 1.03
CAACAGGTT | 1.06
CTTTCTTGGA | 0.992
ATGTCTAATA | 0.998

Sequence | switch fluorescence ratio
GCCGCCACGT | 1.03
AGTACGACGG | 1.01
ATGGTTAAAA | 0.986
GCTTATATTC | 0.972
AAAGGAAGTT | 1.01
CTTCTTAACT | 0.983
AAATGCCCTC | 0.993
CTAGACTGCC | 1.13
ACCTTGTGAA | 0.971
AATTTTTAG | 1.06
CAGCTCTAAA | 1.05
AATGCTTGTA | 0.999
AGAAAACGAT | 1.04
TCGGAACTTT | 1
GTAAAAGTGT | 0.966
TGACTCCGGG | 0.993
CTTGAATTCG | 0.94
AGTTCGTCGG | 1.01
TTCGTAGGGA | 0.986
CGGTCCGGGA | 1.04
AGATTCCAGG | 1.14
AGTTGTCGTA | 0.99
CGGGAAGGAC | 1

Sequence | switch fluorescence ratio
TTCACTAT | 0.98
CCATGCCTCC | 1.62
ACACCATCTT | 1.06
TCGTACATTC | 1.06
TGCCGTAATC | 1.2
CTGATTTTTC | 0.973
TAACTAGGT | 1
TAATAGGTAG | 0.967
AACTCGTGAG | 1.01
TCCAAATTCC | 1.02
TAAGGACTCC | 0.969
TATTCACACT | 1.03
ACTTTAATGC | 1.1
AAAGGTCTCT | 0.981
GAGTTAAT | 1.02
GACTTAACAG | 0.991
GGCAGGTCA | 0.988
AGCGCAGTGA | 0.999
ATTCGAGAG | 1.01
TTCCGAATTA | 1.08
CGTCTATCCG | 1.05
ACTCAGTGA | 1.12
GGCTACCGTC | 0.97

Sequence | switch fluorescence ratio
CAACGAAGGA | 1
GAAAAGGTT | 1.01
CCTCTCCGGG | 1.54
TCCGGTGGTT | 1.39
CCATCGGATG | 1.01
CGTGTCGGCC | 1.02
TCAGCTCGGA | 1.04
ACATAGAACT | 1.05
AATTAGATGA | 0.961
TGGTCAATAG | 2.19
GAGCATAT | 1.28
GCACATGAGT | 1.04
GTTATGGAAG | 1.03
TCGTCGAAAA | 0.997
CACTAGGTAA | 1.01
GATTATAGGA | 0.966
AGGAAAGAGT | 1.08
GGCCGATTCG | 0.965
TCGGCCTCTC | 1.02
GCTAAAAGTG | 1.03
AAGCCTGGTC | 0.976
CCCTAAGGCT | 1
ATGTGCTACG | 1.03

Sequence | switch fluorescence ratio
ATGCAGCTCG | 1.02
CGCCGCGGCC | 1.11
GCTGCATTGT | 1
TTTCTGTAGT | 1.05
CACCCAATAT | 3.49
CAGGATGAAA | 1.02
CGACGGTGA | 1.08
AACCTGACTA | 1.98
ACAGTATCTG | 1.03
AACCCGATAT | 1.05
GGTTGACAAT | 1.01
ACATCTGTTC | 1.03
GTTAGTCCG | 0.901
ATCTGGGAAT | 1
CAATCTACCG | 1.07
CCCTATGGGG | 0.972
TTTAATTAAC | 1.01
GATACCACGG | 1.18
CATGTATTCA | 1.01
ACCTACGGCG | 1.19
TTATTTGGT | 0.997
AAAGGCAATC | 2.59
CTGCCAATTA | 1.24

Sequence | switch fluorescence ratio
AACCACTGCC | 1.16
GATTCGGTTA | 0.942
CAACTGAGTC | 1.08
GATTCCCGAA | 0.995
CGGGTAAAAG | 0.999
AGAGATCGTC | 0.972
ATATACATAG | 1.03
CTCATTATAT | 0.962
AGGGGGTTG | 0.995
AGTTTTTTCT | 0.984
AGCTTACTTT | 1.06
GTAAAAATGT | 0.991
TTCTTGTGCT | 0.97
AGTAATCGGG | 1.02
TAGAACATA | 1.01
TTCTTACGGC | 0.978
GCCTGAAATG | 0.973
GTTACAACTG | 0.999
ATTTTCACGA | 1.01
CAGCAGGTTA | 1.09
GCAATTAAAA | 0.928
GAGCCAATTT | 1.01
ACCAATGCAA | 1.75

Sequence | switch fluorescence ratio
TGATATTGCG | 0.951
GGCAAAGATT | 1.01
CCTGAATTGA | 0.964
ATAAGATAGT | 0.988
CATATTGGTT | 0.968
AAAGACGTGG | 0.976
GGGCTCCAAG | 1.04
AGTGACTCGT | 0.963
TCTTTCTAGT | 0.979
ATAGGTGTCC | 1.02
TTAATACGTC | 0.99
GTTGCGTTTG | 0.986
GCATACAGCC | 1.05
AAATGCTGGT | 1.05
CAGCAGGGGA | 1.03
ATGGTGATGG | 1.02
GCGATCGGAG | 1.05
ACGAAAACCG | 1.03
ACGGTACTGC | 1.46
TTCTCTTTAA | 0.963
